Experimental data from PMC5779705.
No constants are given. Whether binding was seen depends on the method and setting. In cells and extracts the contact can be indirect. Some results given as binding are weak or reduced against the parent protein; the word gives no strength. Tags and fused reporters may be left off the sequences shown.

T1: C-terminally myc-tagged Ctr9 (S. cerevisiae) (UniProt P89105)
T1 sequence: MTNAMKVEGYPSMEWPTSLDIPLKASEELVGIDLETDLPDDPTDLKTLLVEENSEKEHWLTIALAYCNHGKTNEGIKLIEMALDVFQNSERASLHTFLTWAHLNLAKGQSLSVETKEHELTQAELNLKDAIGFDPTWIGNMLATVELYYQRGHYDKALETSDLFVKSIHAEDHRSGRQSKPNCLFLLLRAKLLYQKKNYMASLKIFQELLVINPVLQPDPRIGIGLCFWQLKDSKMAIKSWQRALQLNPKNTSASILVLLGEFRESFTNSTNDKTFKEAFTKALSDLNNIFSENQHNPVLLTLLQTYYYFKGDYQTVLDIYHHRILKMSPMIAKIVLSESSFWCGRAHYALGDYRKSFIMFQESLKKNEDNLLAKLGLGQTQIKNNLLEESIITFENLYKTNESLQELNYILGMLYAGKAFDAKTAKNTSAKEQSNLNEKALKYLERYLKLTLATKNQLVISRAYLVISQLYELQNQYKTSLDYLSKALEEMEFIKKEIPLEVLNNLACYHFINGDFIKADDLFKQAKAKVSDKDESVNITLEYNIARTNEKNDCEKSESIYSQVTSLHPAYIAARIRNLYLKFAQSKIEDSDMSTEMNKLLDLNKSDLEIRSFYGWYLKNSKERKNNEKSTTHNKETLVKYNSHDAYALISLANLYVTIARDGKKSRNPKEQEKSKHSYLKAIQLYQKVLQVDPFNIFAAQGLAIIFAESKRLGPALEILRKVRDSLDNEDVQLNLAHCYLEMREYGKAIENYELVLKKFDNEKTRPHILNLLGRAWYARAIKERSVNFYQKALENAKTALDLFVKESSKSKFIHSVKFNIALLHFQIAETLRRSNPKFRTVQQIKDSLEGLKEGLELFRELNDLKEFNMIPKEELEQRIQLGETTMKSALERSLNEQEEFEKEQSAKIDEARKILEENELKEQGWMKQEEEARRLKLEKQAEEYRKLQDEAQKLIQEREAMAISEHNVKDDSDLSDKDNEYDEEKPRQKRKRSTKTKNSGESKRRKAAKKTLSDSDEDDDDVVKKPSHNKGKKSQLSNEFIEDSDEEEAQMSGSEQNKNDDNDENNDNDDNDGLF

T2: C-terminally myc-tagged Leo1 (S. cerevisiae) (UniProt P38439)
T2 sequence: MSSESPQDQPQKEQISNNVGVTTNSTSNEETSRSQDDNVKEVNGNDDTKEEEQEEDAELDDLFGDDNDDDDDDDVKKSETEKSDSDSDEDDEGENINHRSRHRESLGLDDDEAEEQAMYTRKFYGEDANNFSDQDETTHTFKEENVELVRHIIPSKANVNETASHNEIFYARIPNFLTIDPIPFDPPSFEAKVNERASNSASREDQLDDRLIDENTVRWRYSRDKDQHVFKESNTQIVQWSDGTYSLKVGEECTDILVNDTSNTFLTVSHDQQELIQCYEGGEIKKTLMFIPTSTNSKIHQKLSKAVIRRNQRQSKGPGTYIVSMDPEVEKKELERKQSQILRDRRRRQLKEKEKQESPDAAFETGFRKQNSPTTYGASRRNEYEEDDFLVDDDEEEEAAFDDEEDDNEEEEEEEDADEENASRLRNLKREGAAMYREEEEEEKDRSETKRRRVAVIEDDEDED

T3: C-terminally myc-tagged Paf1 (S. cerevisiae) (UniProt P38351)
T3 sequence: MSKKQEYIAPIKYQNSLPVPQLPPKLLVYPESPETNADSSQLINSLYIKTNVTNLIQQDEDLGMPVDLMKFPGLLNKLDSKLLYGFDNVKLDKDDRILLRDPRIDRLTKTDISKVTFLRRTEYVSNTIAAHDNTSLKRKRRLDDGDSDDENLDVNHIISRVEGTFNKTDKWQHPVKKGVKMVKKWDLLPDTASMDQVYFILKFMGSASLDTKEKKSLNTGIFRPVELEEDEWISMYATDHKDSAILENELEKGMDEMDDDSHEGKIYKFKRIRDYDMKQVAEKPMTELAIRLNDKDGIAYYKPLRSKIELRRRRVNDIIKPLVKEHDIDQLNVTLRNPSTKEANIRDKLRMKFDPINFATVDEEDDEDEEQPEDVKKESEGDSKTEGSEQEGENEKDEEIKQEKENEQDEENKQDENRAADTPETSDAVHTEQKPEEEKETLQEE

B1: C-terminally Venus-tagged Cdc73Δ2–124 (domain or fragment, UniProt Q06697)
chain: MGETSDKVDIENKTLAGELSTVKSTTSASLENDSEVSDPVVVETMKHERILVDHNSALRGAKPINFGYLIKDAELKLVQSIKGSLRGSKLPPGHKGAHGRISKTNGSSGGPRKDPIILIPSAASSILTVANIKQFLLESKYVNPRNLPSVPNGLVNIEKNFERISRPIRFIIVDNTRMFTKPEYWDRVVAIFTTGHTWQFNNYQWNSPQELFQRCKGYYFHFAGDSVPQHVQQWNVEKVELDKNKRFKDVEVVRYFWHSLEKELISRGYR
B2: C-terminally Venus-tagged Cdc73:125–229 (domain or fragment, UniProt Q06697 125-229)
chain: GETSDKVDIENKTLAGELSTVKSTTSASLENDSEVSDPVVVETMKHERILVDHNSALRGAKPINFGYLIKDAELKLVQSIKGSLRGSKLPPGHKGAHGRISKTNG
B3: C-terminally Venus-tagged Cdc73Δ125–229 (domain or fragment, UniProt Q06697)
chain: MANSLDRLREHLKNGDKLVLKNNEGQSTDDITKATMVETLSSDGSTQDSFPLNEETEIEIDGSLVQLRIIVHCWMNKDSSAADYLADCQNKQLTNVSFLQRTDLINWLSGNTESSQYLKAPGQKSSGGPRKDPIILIPSAASSILTVANIKQFLLESKYVNPRNLPSVPNGLVNIEKNFERISRPIRFIIVDNTRMFTKPEYWDRVVAIFTTGHTWQFNNYQWNSPQELFQRCKGYYFHFAGDSVPQHVQQWNVEKVELDKNKRFKDVEVVRYFWHSLEKELISRGYR
B4: C-terminally Venus-tagged full-length Cdc73 (protein, UniProt Q06697 1-393)
chain: MANSLDRLREHLKNGDKLVLKNNEGQSTDDITKATMVETLSSDGSTQDSFPLNEETEIEIDGSLVQLRIIVHCWMNKDSSAADYLADCQNKQLTNVSFLQRTDLINWLSGNTESSQYLKAPGQKGETSDKVDIENKTLAGELSTVKSTTSASLENDSEVSDPVVVETMKHERILVDHNSALRGAKPINFGYLIKDAELKLVQSIKGSLRGSKLPPGHKGAHGRISKTNGSSGGPRKDPIILIPSAASSILTVANIKQFLLESKYVNPRNLPSVPNGLVNIEKNFERISRPIRFIIVDNTRMFTKPEYWDRVVAIFTTGHTWQFNNYQWNSPQELFQRCKGYYFHFAGDSVPQHVQQWNVEKVELDKNKRFKDVEVVRYFWHSLEKELISRGYR
B5: C-terminally Venus-tagged Cdc73Δ230–393 (domain or fragment, UniProt Q06697 1-229)
chain: MANSLDRLREHLKNGDKLVLKNNEGQSTDDITKATMVETLSSDGSTQDSFPLNEETEIEIDGSLVQLRIIVHCWMNKDSSAADYLADCQNKQLTNVSFLQRTDLINWLSGNTESSQYLKAPGQKGETSDKVDIENKTLAGELSTVKSTTSASLENDSEVSDPVVVETMKHERILVDHNSALRGAKPINFGYLIKDAELKLVQSIKGSLRGSKLPPGHKGAHGRISKTNG

How the values were obtained:
Assay in all cases: co-IP; lysates of log-phase doubly tagged S. cerevisiae strains; anti-c-myc MicroBeads (μMACS) 30 minutes on ice; Western blot with anti-GFP/Venus antibody; for Paf1-myc and Cdc73-Venus also in leo1Δ and rtf1Δ strains
[1] = target: T1, C-terminally myc-tagged Ctr9 (S. cerevisiae)
[2] = target: T2, C-terminally myc-tagged Leo1 (S. cerevisiae)
[3] = target: C-terminally myc-tagged Rtf1 (S. cerevisiae) (UniProt P53064)
[4] = target: T3, C-terminally myc-tagged Paf1 (S. cerevisiae)

Binder | binding [1] | binding [2] | binding [3] | binding [4]
B1 | binds | binds | binds | 
B2 | binds | binds | binds | 
B3 | binds weakly | binds weakly | no binding | no binding
B4 | binds | binds | binds | 
B5 | binds | binds | binds | 
